Results taken from the supplement of paper PMC9174493.
The list shows a part of the results. Single values of this set are uncertain. Values with irradiation are relative to irradiated vehicle.

Legend:
A549-Dual [1] = experiment: NF-kB reporter (SEAP) activity, viability-corrected, relative to vehicle (fold change vs vehicle); higher = more activation of STING-IRF / NF-kB immune response reporter
A549-Dual [2] = experiment: ISRE reporter (Lucia luciferase) activity, viability-corrected, relative to vehicle (fold change vs vehicle); higher = more activation of STING-IRF / NF-kB immune response reporter
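For NF-kB reporter (SEAP) activity, viability-corrected, relative to vehicle in this document: viability correction based on the alamar blue assay, with concentrations leaving 10% survival or less dropped.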

Row | Structure (SMILES) | NF-kB reporter (A549-Dual [1]; 0.1 µM, irradiation: 8 Gy/4 fr) | NF-kB reporter (A549-Dual [1]; 0.1 µM, irradiation: none) | NF-kB reporter (A549-Dual [1]; 0.3 µM, irradiation: 8 Gy/4 fr) | NF-kB reporter (A549-Dual [1]; 0.3 µM, irradiation: none) | NF-kB reporter (A549-Dual [1]; 1 µM, irradiation: 8 Gy/4 fr) | NF-kB reporter (A549-Dual [1]; 1 µM, irradiation: none) | NF-kB reporter (A549-Dual [1]; 3 µM, irradiation: 8 Gy/4 fr) | NF-kB reporter (A549-Dual [1]; 3 µM, irradiation: none) | NF-kB reporter (A549-Dual [1]; 10 µM, irradiation: 8 Gy/4 fr) | NF-kB reporter (A549-Dual [1]; 10 µM, irradiation: none) | ISRE reporter (A549-Dual [2]; 0.1 µM, irradiation: 8 Gy/4 fr) | ISRE reporter (A549-Dual [2]; 0.1 µM, irradiation: none) | ISRE reporter (A549-Dual [2]; 0.3 µM, irradiation: 8 Gy/4 fr) | ISRE reporter (A549-Dual [2]; 0.3 µM, irradiation: none) | ISRE reporter (A549-Dual [2]; 1 µM, irradiation: 8 Gy/4 fr) | ISRE reporter (A549-Dual [2]; 1 µM, irradiation: none) | ISRE reporter (A549-Dual [2]; 3 µM, irradiation: 8 Gy/4 fr) | ISRE reporter (A549-Dual [2]; 3 µM, irradiation: none) | ISRE reporter (A549-Dual [2]; 10 µM, irradiation: 8 Gy/4 fr) | ISRE reporter (A549-Dual [2]; 10 µM, irradiation: none)
1 | Nc1nc(=O)c2c([nH]1)NCC(CNc1ccc(C(=O)NC(CCC(=O)[O-])C(=O)[O-])cc1)N2C=O.O.O.O.O.O.[Ca+2] (stereo not given) [Leucovorin Calcium Pentahydrate] | 0.985 | 0.982 | 0.773 | 0.871 | 0.93 | 0.946 | 0.876 | 1.04 | 0.946 | 0.95 | 0.907 | 1.11 | 0.755 | 0.841 | 0.922 | 1.03 | 0.839 | 0.835 | 0.911 | 0.879
2 | Cc1oncc1C(=O)Nc1ccc(C(F)(F)F)cc1 [Leflunomide] | 0.967 | 1.03 | 0.931 | 1.19 | 1.44 | 0.933 | 1.3 | 1.02 | 0.88 | 0.916 | 0.833 | 0.791 | 0.822 | 0.817 | 0.766 | 0.713 | 0.75 | 0.796 | 0.551 | 0.514
3 | CC(=O)OC12COC1CC(O)C1(C)C(=O)C(O)C3=C(C)C(OC(=O)C(O)C(NC(=O)OC(C)(C)C)c4ccccc4)CC(O)(C(OC(=O)c4ccccc4)C21)C3(C)C (stereo not given) [Docetaxel] | 1.04 | 2.26 | 1.16 | 2.46 | 1.08 | 2.42 | 1.18 | 1.87 | 1.08 | 1.78 | 0.947 | 6.65 | 0.875 | 6.32 | 0.761 | 6.07 | 1.2 | 6.01 | 1.31 | 5.52
4 | CC1CC2C3CCC4=CC(=O)C=CC4(C)C3(F)C(O)CC2(C)C1(O)C(=O)COP(=O)([O-])[O-].[Na+].[Na+] (stereo not given) [Dexamethasone Sodium Phosphate] | 0.942 | 0.88 | 1.2 | 1.39 | 0.688 | 1.1 | 0.65 | 0.839 | 0.649 | 1.53 | 0.0814 | 0.358 | 0.0735 | 0.243 | 0.0687 | 0.223 | 0.059 | 0.261 | 0.0655 | 0.157
5 | CNS(=O)(=O)CC1CCC(N(C)c2ncnc3[nH]ccc23)CC1.O=C(O)/C=C\C(=O)O (stereo not given) [Oclacitinib?maleate] | 0.988 | 2.42 | 1.37 | 2.08 | 1.73 | 1.39 | 2.07 | 1.23 | 1.4 | 1.05 | 0.653 | 1.88 | 0.939 | 1.04 | 0.522 | 0.742 | 0.45 | 0.421 | 0.183 | 0.337
6 | COC(=O)C(Cc1ccccc1)NC(=O)C(N)CC(=O)O (stereo not given) [Aspartame] | 1.03 | 1.74 | 1.27 | 2.02 | 1.61 | 1.31 | 1.94 | 1.28 | 1.46 | 0.993 | 1.09 | 1.37 | 1.13 | 1.34 | 1.15 | 1.18 | 1.17 | 1.35 | 1.12 | 0.739
7 | COC1CC2CCC(C)C(O)(O2)C(=O)C(=O)N2CCCCC2C(=O)OC(C(C)CC2CCC(OC(=O)C(C)(CO)CO)C(OC)C2)CC(=O)C(C)/C=C(\C)C(O)C(OC)C(=O)C(C)CC(C)/C=C/C=C/C=C/1C (stereo not given) | 0.952 | 1.19 | 0.937 | 1.29 | 0.865 | 0.934 | 0.924 | 0.972 | 1.18 | 0.778 | 0.611 | 1.24 | 0.697 | 1.18 | 0.628 | 1 | 0.597 | 1.05 | 0.531 | 1.06
8 | CN(C)C/C=C/C(=O)Nc1cc2c(Nc3ccc(F)c(Cl)c3)ncnc2cc1OC1CCOC1.O=C(O)/C=C\C(=O)O.O=C(O)/C=C\C(=O)O (stereo not given) [Afatinib (BIBW2992) Dimaleate] | 0.875 | 1.01 | 0.697 | 1.36 | 0.901 | 1.81 | 0.674 | 1.24 | 0.71 | 0.98 | 0.969 | 0.969 | 0.724 | 0.892 | 0.818 | 0.919 | 0.855 | 0.795 | 0.753 | 0.656
9 | CC(C)C(=O)Oc1ccc(CO)cc1C(CCN(C(C)C)C(C)C)c1ccccc1.O=C(O)/C=C/C(=O)O (stereo not given) [Fesoterodine Fumarate] | 1.21 | 1.42 | 1.3 | 1.52 | 1.4 | 1.11 | 1.65 | 1.14 | 1.13 | 1.3 | 1.13 | 1.41 | 1.08 | 1.37 | 1.47 | 1.18 | 1.3 | 1.22 | 1.34 | 0.983
10 | COc1cc(C2Oc3cc(C4Oc5cc(O)cc(O)c5C(=O)C4O)ccc3OC2CO)ccc1O (stereo not given) [Silibinin] | 1.3 | 1.22 | 0.997 | 1.34 | 0.931 | 1.77 | 1.01 | 1.33 | 0.821 | 1.04 | 1.12 | 1.04 | 1.08 | 1.14 | 1.09 | 1.19 | 1.09 | 0.891 | 0.99 | 1.09
11 | COc1ccc2cc(C(C)C(=O)[O-])ccc2c1.[Na+] (stereo not given) [Naproxen Sodium] | 0.992 | 1.35 | 0.974 | 1.52 | 1.28 | 1.21 | 1.4 | 0.946 | 0.978 | 1.02 | 1 | 0.913 | 0.927 | 1.02 | 0.81 | 1.14 | 0.913 | 0.985 | 0.954 | 0.873
